Experimental data published in paper PMC9556525.

Target: full-length coilin fused to CFP or YFP (wild type) (human), P38432
Experiment: FRET or BRET; acceptor photobleaching FRET between CFP (donor) and YFP (acceptor) fusions co-expressed in HeLa cells, fixed in 2% paraformaldehyde; apparent FRET efficiency; Fig. 4c, d
Settings: remark: other sources report otherwise

apparent FRET efficiency: 20%
B1: full-length coilin fused to CFP or YFP (wild type) (natural protein)
chain: MAASETVRLRLQFDYPPPATPHCTAFWLLVDLNRCRVVTDLISLIRQRFGFSSGAFLGLYLEGGLLPPAESARLVRDNDCLRVKLEERGVAENSVVISNGDINLSLRKAKKRAFQLEEGEETEPDCKYSKKHWKSRENNNNNEKVLDLEPKAVTDQTVSKKNKRKNKATCGTVGDDNEEAKRKSPKKKEKCEYKKKAKNPKSPKVQAVKDWANQRCSSPKGSARNSLVKAKRKGSVSVCSKESPSSSSESESCDESISDGPSKVTLEARNSSEKLPTELSKEEPSTKNTTADKLAIKLGFSLTPSKGKTSGTTSSSSDSSAESDDQCLMSSSTPECAAGFLKTVGLFAGRGRPGPGLSSQT[sequence of about 200 residues not given]
